From the supplement of paper PMC10369915
Some of the results follow. Cut-off read from the data, not from the text of the source: active = 3.2 or more and inactive = the rest. The signal is at background level for most entries.

Assays:
Experiment in all cases: enrichment score (SH2-bound / input frequency) (ratio); bacterial display of known human phosphotyrosine sites (pTyr-Var adds point mutants) read by sequencing; higher = stronger binding; tyrosines were phosphorylated by kinases first
Settings in all cases: peptide library: Human pTyr
SHP2 C-SH2 domain E139D = biological target: SHP2 C-SH2 domain E139D
[1] = biological target: SHP2 C-SH2 domain wild-type
SHP2 N-SH2 domain L43F = biological target: SHP2 N-SH2 domain L43F
SHP2 N-SH2 domain T42A = biological target: SHP2 N-SH2 domain T42A
SHP2 N-SH2 domain T52S = biological target: SHP2 N-SH2 domain T52S
[2] = biological target: SHP2 N-SH2 domain wild-type
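Note: displayed peptides selected on beads carrying the immobilized SH2 domain, with library peptides lacking any tyrosine serving as negative controls.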

Binder	enrichment score (SHP2 C-SH2 domain E139D)	enrichment score [1]	enrichment score (SHP2 N-SH2 domain L43F)	enrichment score (SHP2 N-SH2 domain T42A)	enrichment score (SHP2 N-SH2 domain T52S)	enrichment score [2]
CFLRENAYYDSSVVG [CLH2_HUMAN_899]	inactive: 1.16	inactive: 1.11	inactive: 1.24	inactive: 1.31	inactive: 1.29	inactive: 1.31
GERQLYCYEVVPQQP [CORO7_HUMAN_288]	inactive: 1.34	inactive: 1.39	inactive: 1.16	inactive: 1.56	inactive: 1.45	inactive: 1.59
DTDYRHSYEYQRENS [CLK2_HUMAN_99]	inactive: 0.642	inactive: 0.588	inactive: 0.772	inactive: 0.522	inactive: 0.624	inactive: 0.566
EGTYGVVYKARNKLT [CDK2_HUMAN_19]	inactive: 0.984	inactive: 0.547	inactive: 0.589	inactive: 0.576	inactive: 0.559	inactive: 0.767
GLVTTLHYPAPKCNK [ABL2_HUMAN_261]	inactive: 1.33	inactive: 0.949	inactive: 0.896	inactive: 1.05	inactive: 1.1	inactive: 1.3
VLQQVGDYCFLPGLG [CSF2RB_HUMAN_822]	inactive: 1.33	inactive: 1.61	inactive: 1.17	inactive: 1.19	inactive: 1.27	inactive: 1.58
EAPGEQLYQQSRAYV [CS025_HUMAN_63]	inactive: 0.702	inactive: 0.46	inactive: 0.531	inactive: 0.601	inactive: 0.712	inactive: 0.629
TKKTEDLYWRQQSLK [CG031_HUMAN_442]	inactive: 0.722	inactive: 1.06	inactive: 1.22	inactive: 1.02	inactive: 1.09	inactive: 1.23
NNANYTEYVATRWYR [CDKL5_HUMAN_171]	inactive: 1.89	inactive: 1.47	inactive: 1.79	inactive: 1.42	inactive: 2.06	inactive: 1.58
KNAEDCLYELPENIR [CI078_HUMAN_147]	inactive: 1.05	inactive: 0.722	inactive: 0.88	inactive: 0.827	inactive: 0.953	inactive: 0.872
VVGAMQLYSVDRKVS [CLH1_HUMAN_184]	inactive: 0.641	inactive: 0.478	inactive: 0.495	inactive: 0.527	inactive: 0.493	inactive: 0.491
GERQLACYEVVPQQP [CORO7_HUMAN_288_YA]	inactive: 1.07	inactive: 1.12	inactive: 1	inactive: 1.26	inactive: 1.34	inactive: 1.44
GGQYGEVYVGVWKKY [ABL2_HUMAN_303]	inactive: 0.784	inactive: 0.653	inactive: 0.793	inactive: 0.883	inactive: 0.761	inactive: 0.86
SIDLKDKYKNIGAKL [CH60_HUMAN_90]	inactive: 1.15	inactive: 1.08	inactive: 0.96	inactive: 0.667	inactive: 0.994	inactive: 1.45
KCNKPTVYGVSPIHD [ABL2_HUMAN_272]	inactive: 0.946	inactive: 0.966	inactive: 0.818	inactive: 0.97	inactive: 0.974	inactive: 0.964
KMTTNPIYEHIGYAT [CHN2_HUMAN_153]	inactive: 0.772	inactive: 0.7	inactive: 0.719	inactive: 0.499	inactive: 0.714	inactive: 0.774
ATATKVVYSAPRSTG [CLD3_HUMAN_198_YA]	inactive: 2.25	active: 5.55	inactive: 0.859	inactive: 1.05	inactive: 0.594	inactive: 0.876
GDTRVFLYELLPESP [CORO7_HUMAN_758]	inactive: 1.22	inactive: 1.25	inactive: 1.01	inactive: 1.3	inactive: 1.36	inactive: 1.41

Binder	enrichment score (SHP2 C-SH2 domain E139D)	enrichment score [1]	enrichment score (SHP2 N-SH2 domain L43F)	enrichment score (SHP2 N-SH2 domain T42A)	enrichment score (SHP2 N-SH2 domain T52S)	enrichment score [2]
NLQNGPIYARVIQKR [CRK_HUMAN_239]	inactive: 1.16	inactive: 0.876	inactive: 1.23	inactive: 1.05	inactive: 1.06	inactive: 1.2
ANVSTTPYLQSVKKK [CKAP2_HUMAN_599_YA]	inactive: 1.2	inactive: 0.86	inactive: 0.905	inactive: 1.06	inactive: 1.04	inactive: 1.25
EENESPHYDDVHEAL [CLIC5_HUMAN_33_YA]	inactive: 1.13	inactive: 0.8	inactive: 0.903	inactive: 0.915	inactive: 0.912	inactive: 1.51
TPLTPSQYYSGSKYE [CENPF_HUMAN_158]	inactive: 0.666	inactive: 0.567	inactive: 1.07	inactive: 0.563	inactive: 0.501	inactive: 0.652
YFASVRAYNTAGTGP [CNTN6_HUMAN_882]	inactive: 0.477	inactive: 0.446	inactive: 0.559	inactive: 0.456	inactive: 0.497	inactive: 0.567
NKMNEVTYSTLNFEA [CEAM1_HUMAN_493]	active: 3.85	active: 6.81	active: 12.7	active: 11.6	active: 7.26	inactive: 1.68
KGHSDDDYDDPELRM [CLNK_HUMAN_69]	inactive: 0.992	inactive: 0.907	inactive: 0.777	inactive: 0.863	inactive: 0.845	inactive: 0.943
KYKQKPKYQVRWKII [CSF1R_HUMAN_546]	active: 3.54	active: 4.4	active: 6.17	inactive: 3.09	active: 3.86	active: 5.78
GSLPEFAYRPPRPPK [CDN1B_HUMAN_89_YA]	inactive: 0.572	inactive: 0.615	inactive: 0.526	inactive: 0.513	inactive: 0.579	inactive: 0.765
SSQGVDTYVEMRPVS [CSF1R_HUMAN_723]	inactive: 0.599	inactive: 0.531	inactive: 0.793	inactive: 0.529	inactive: 0.523	inactive: 0.686
EKIGEGTYGTVFKAK [CDK5_HUMAN_15]	inactive: 0.786	inactive: 0.674	inactive: 0.617	inactive: 0.915	inactive: 0.84	inactive: 0.99
NIHLEKKYVRRDSGF [CSF1R_HUMAN_708]	inactive: 1.07	inactive: 1.01	inactive: 1.22	inactive: 0.972	inactive: 1.65	inactive: 1.18
TAEDNLEYVRTLYDF [CRKL_HUMAN_127]	inactive: 0.726	inactive: 0.926	inactive: 0.868	inactive: 1.03	inactive: 1.24	inactive: 1.22
AASAGRIYAGGGTGS [CELR3_HUMAN_3051_YA]	inactive: 0.621	inactive: 0.533	inactive: 0.64	inactive: 0.534	inactive: 0.397	inactive: 0.485
SSSSVVPYLPRLPIL [ABL2_HUMAN_568]	inactive: 0.73	inactive: 0.636	inactive: 0.599	inactive: 0.641	inactive: 0.737	inactive: 0.687
AFASVRAYNTAGTGP [CNTN6_HUMAN_882_YA]	inactive: 0.509	inactive: 0.438	inactive: 0.567	inactive: 0.436	inactive: 0.597	inactive: 0.388
KAKQKPKYQVRWKII [CSF1R_HUMAN_546_YA]	inactive: 3.08	active: 3.32	inactive: 3.11	inactive: 2.93	active: 3.3	active: 3.79
DAEGHLIYHVGDWLQ [CLK2_HUMAN_153]	inactive: 0.725	inactive: 0.674	inactive: 0.786	inactive: 0.86	inactive: 0.771	inactive: 0.77
